Among the data in the supplement of paper PMC10681739 are ETS1 binding intensity values, retold here.

± gives the standard deviation of the averaged measurements. In all, about 4,100 sequences were measured (“arbitrary fluorescence units”: median about 780, highest 2% from about 22,000 on). This is one part of the list.

The test concerns the target T1, ETS1 (UniProt P14921).
T1 sequence: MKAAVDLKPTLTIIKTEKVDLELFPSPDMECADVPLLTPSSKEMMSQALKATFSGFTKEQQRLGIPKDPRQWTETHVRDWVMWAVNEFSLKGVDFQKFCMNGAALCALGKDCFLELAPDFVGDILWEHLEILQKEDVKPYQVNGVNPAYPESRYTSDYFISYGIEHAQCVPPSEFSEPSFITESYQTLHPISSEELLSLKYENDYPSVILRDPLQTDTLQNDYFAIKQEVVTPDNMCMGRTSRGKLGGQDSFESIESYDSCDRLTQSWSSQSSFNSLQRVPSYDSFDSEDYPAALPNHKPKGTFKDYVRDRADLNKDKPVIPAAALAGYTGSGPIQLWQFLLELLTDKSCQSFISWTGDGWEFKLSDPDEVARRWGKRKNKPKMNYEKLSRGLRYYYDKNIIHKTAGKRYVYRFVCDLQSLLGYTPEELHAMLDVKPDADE
As to the kind of experiment: ETS1 binding intensity (PBM fluorescence), ETS1 alone (arbitrary fluorescence units); higher = stronger binding. The note with it: ETS1 concentration 1 nM; RUNX1 concentration 0 nM. The protocol: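 gcPBM on 36-bp genomic-derived probes (partner site mutated) containing one ETS1 site and no RUNX1 site. Recombinant human ETS1 (1 nM) was incubated alone or with RUNX1 (25 nM) and detected by anti-ETS1 antibody fluorescence. Values are medians over 4 replicate spots (not normalised). The probes sit in constant array flanks that are not printed.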
The sequence GCATGCGCCAGAGACCATGCACCGGATTGGGCGCCT returned an ETS1 binding intensity of 281.

Regarding GGCCTCCTTCGGAAGCTCCCCTCCACCCTCAAGCAG, the ETS1 binding intensity stood at 304.

For AGGAGCCGGAAGTCCCGCCCACGCACCCCCCGTAGG, the ETS1 binding intensity is 8920.

In turn, CCCTCAGCGGAAGTGGAAGCTGTAGTTTCCAAAGGC gave an ETS1 binding intensity of 7590.

CCGCCGGGCTTCGGCGCTGGAACCGGACCAATCCGG showed an ETS1 binding intensity of 305.

The sequence GCCACGGTGCCTGCCGGGACAGCGAGTTCCGCCGGG returned an ETS1 binding intensity of 419.

In the case of GGCGGGGCATCCGGCAGCACCGCCTGCAGGCGCCCG, the ETS1 binding intensity is 4900.

TCGGTCTACGGCTGCGCACAGCGCGAGGAAGCGCGG: the ETS1 binding intensity came out at 473.

For CCTGGCCGCCTATCAAATCTTGCCACTTCCTGCTCG, the ETS1 binding intensity was determined as 1430.

Take GCCTTCCGCCGTCTGCTAGGCGTGTCGCCGTAGGAG: the ETS1 binding intensity was determined as 3670.

AGAGCTTGGGGGGAGGAGCCCTCTTCCTTCCTGCCC: the ETS1 binding intensity is 1050.

Consider TGTCTTCAGGAAGTGTAGCAGGTGTTGGGGTCAAGC, for which the ETS1 binding intensity worked out at 1160 ± 47.

For the sequence TTCATCTACTTCCCGCCACACCTACAGAGAAGCCCA, the ETS1 binding intensity turned out to be 2480.

With AATATCCTGTATGTCATGCTTAAAAAGTCACAAAAC, the ETS1 binding intensity was 18100.

As to CAAAAGTGGATGATGAACATTAGAATCAGGAAATGG, the ETS1 binding intensity was 488.

GAAGCGCTGGGCGGAAGTGGCTGTGACTTTGCCCTT registered an ETS1 binding intensity of 3970.

GGGTTTTGTAGTTAGCAAGTTCCTGCTTCCGTCGCA showed an ETS1 binding intensity of 1350.

The sequence CTTCATCAACCCATCCTGTCTTGTAGTTAAGTCAAG came in with an ETS1 binding intensity of 1490.

CTCCCGTCCCCTCAGAGTGCAAGGATGTGAACAAGG: the ETS1 binding intensity was 391.

Regarding GGGCTTCCGGCTGAACCCATGGCTGAGGGCTGTGCT, the ETS1 binding intensity turned out to be 11300.

TTTCTTGCCACTAGGGGACGCTACTTCCCTGAGGCT returned an ETS1 binding intensity of 353.

Consider AGTGCTTTGCCGTATAATACTGCACATCCTGTGTTG, for which the ETS1 binding intensity turned out to be 1300.

On to TGAGGTTGGGGTTAGGCAGGAGGAAGCCGTTTGTAG, for which the ETS1 binding intensity turned out to be 518.

The sequence AGGCAGGGAAGTGGCGCAGAGGAGAGCACAGGACAC showed an ETS1 binding intensity of 431.

Consider GCGAGCACTTCCGGTGTGTGAGCCTGCTGTTGCTAC, for which the ETS1 binding intensity worked out at 32800.

Regarding GGACTTCCTGAAGCCAGATCGGTTTATCACAGTCAG, the ETS1 binding intensity amounted to 9710.

In turn, GGACGCTTCCGGTGGAAGGGAGCTGTTACGGGGCTT returned an ETS1 binding intensity of 32900.

In the case of TTGCATGTAGTTTAGGCTGTAGTTTCCTCCTGTAGT, the ETS1 binding intensity is 534.

Sequence ACTAGCGTCGCCGCGCCAAGGTTCCGGTCCGGGTCT returned an ETS1 binding intensity of 1020.

Sequence CCCTGGGGTTCGCGGGCGAAGCGCTTCCTCTAGCTG registered an ETS1 binding intensity of 401.

Sequence AGCGAAGCGCCTACGGCAGCCGGAAGCGAAAGTCTC registered an ETS1 binding intensity of 6300.

TAGCCTTGTGTTGGAAGCAAATCCTGTCTCAGAGGG: the ETS1 binding intensity stood at 414 ± 34.

In turn, GGCGTTCTGGGCGGCGGCGCGTTTCCCCGGCTCCGT registered an ETS1 binding intensity of 323.

TTTAATTCTGTGATTAGAAGTAAAAGGAAGTAAAGG registered an ETS1 binding intensity of 487.

CTGGGGCTGGGACCCAGTTCCTGTACAGGAAGACAT came in with an ETS1 binding intensity of 3020.

In turn, CCATTTCCTGATTCTAATGTTCATCATCCACTTTTG had an ETS1 binding intensity of 10900.

In turn, GAGACTCCCGCCACCTTGGCCGTTTCCCCGGCTCCA displayed an ETS1 binding intensity of 333.

As for TCCGGCCCCGGAGCGCTGTGAACTCCATTTCCCAGA, the ETS1 binding intensity came to 351.

Take GGCCTACGGGAGGGCCCGCCTTGGCTGCTTCCGCAG: the ETS1 binding intensity came to 310.

AAATGAGCGGAGGTTGAGCCCTACTTCCGGTGGTGC had an ETS1 binding intensity of 14100.

CGGTGCACCCCAGCTACGGAACAGGATGTGGAGAAC registered an ETS1 binding intensity of 1510.

As to AGAGGATTGTAGGCTCACAAGCCAACATCCTGACAG, the ETS1 binding intensity worked out at 515.

In turn, GCAGGACTCCAGGAAGCCCGCGCAGCCGCCAAAAGC gave an ETS1 binding intensity of 552.

GTGCGAGGGCGATAAGTGGAAGGAAGCAGCGCATGG displayed an ETS1 binding intensity of 403.

In turn, AGTGGCTACCACTTCCTTCTCTTACGACAGTTCCTT came in with an ETS1 binding intensity of 2590.

The sequence TGCAGCCGCCGCGTCCGGTCCAGCCCCAGGGCCATG yielded an ETS1 binding intensity of 5080.

As to TCCCTTCCTCCTCCCTCAGCCATATACGGTGCTGTA, the ETS1 binding intensity was found to be 1170.

Consider AGGCAAACAGGATGTTCCTCTCCCAAATGCAGACTT, for which the ETS1 binding intensity was 6900.

Sequence AGTCAAACAGGATGTGGCTGGGGAGGCGGCTGTCAC had an ETS1 binding intensity of 11100.

The sequence CTCCGTTAGGAAATACTATGCAGCCACGTCCAGCAT had an ETS1 binding intensity of 404.

Take ACCGAAACTACGGCCCAGCAAAAAGGGAAGTAGGGG: the ETS1 binding intensity is 507.

The sequence GGTTTTGCGCTCACAGCCGCCGGAAGTGGCTCCGTG gave an ETS1 binding intensity of 4350.

Sequence GCACCCGGCACTACTTCCCGACCCGCCTCCCCCGCC returned an ETS1 binding intensity of 603.

Sequence GACCCGCTCACAAGACCTGCCCCTTCCGGGTCCGTT registered an ETS1 binding intensity of 618.

GCCACCTCTTCCTGTGTTGCAAATCACAGGTCCACC gave an ETS1 binding intensity of 6690.

Turning to ACTACATTTCCCAGGAGGCTTCACGGTGAGCCTCCG, the ETS1 binding intensity came out at 393.

Sequence CTGTAGGTTCGGCAGTAAACTCTGACTTCCTATTTA displayed an ETS1 binding intensity of 462.

For the sequence CGGCGGTGCCGGTAGCTCCACTTCCGCTCCGATCGC, the ETS1 binding intensity is 8130.

Take GCAGGACTTCCTGTGTTGTGCTAACCCCAAATTACA: the ETS1 binding intensity was 22100.

CAAGCCACTTAAGTGTCCTCTGTAACCGTCCGGGGG: the ETS1 binding intensity stood at 554.

The sequence TCAGGAGCCACGGACGGGCGGGGCTTCCGGGAGCAA returned an ETS1 binding intensity of 1170.

For CGAAGCCAGGAAATAAGGATAAATCACAGAAAGAAA, the ETS1 binding intensity is 1710.

Take ACCCCCCAACTACAAGGCCCGTTTCCTGCCTCCCCA: the ETS1 binding intensity turned out to be 3000.

GTTTATCACAGGACTCAAGTCTACATTTCCTGTCTC: the ETS1 binding intensity came to 2180.

Turning to CCCGTGCACCCCAGCCTTACGGGGAAGTGCTCAGGG, the ETS1 binding intensity was determined as 419.

As for CACCCAAGGATATGCTTTTTTTTGGCAAGTCACATC, the ETS1 binding intensity is 604.

The sequence CAGGGAAGTTCGAACTGGGCGGGGCCCACCCCAGTT yielded an ETS1 binding intensity of 480.

Regarding GTGTTCAGACGGAAGCGTTATTCAGTGGCCAGAGCA, the ETS1 binding intensity was 900.

In turn, CTCAGGTTATCTAGGAAATCTACCGTACGCTAAAGT displayed an ETS1 binding intensity of 413.

As for CAACAACCGGAAGTGGGGCGGGCCGTAGTACCCGCC, the ETS1 binding intensity was found to be 35100.

TGCAGCTTCCTCCCGCTGCTCCGCCCAGCGGATTCT yielded an ETS1 binding intensity of 2710.

Sequence AAGCCCCGTAACAGCTCCCTTCCACCGGAAGCGTCC came in with an ETS1 binding intensity of 1590.

The sequence ATACATACAGGATGACATTTGTCCTGTGAGCACCAG yielded an ETS1 binding intensity of 497.

CTTATCACACGCCGCGAACGCCTTAACTTCCGGTCC yielded an ETS1 binding intensity of 7950.

On to TATCAATAAGGAAGTACAATCACCAAACCCCAAGCC, for which the ETS1 binding intensity was 677.

Sequence GAGGTGGTACCCCAGGCCGCGTTGACCGGAAAGTAG returned an ETS1 binding intensity of 455.

For the sequence GCCAACAGTGCTTTCGCCCCGCTTCCTGCGCCCCGC, the ETS1 binding intensity is 1050.

On to TGGGGACAGGAAATGTTTACTGCCTGTGACTTGCTG, for which the ETS1 binding intensity came out at 3460.

As to CACTCCCCTCCCGAGGTCACACTTCCGGCGGCCACC, the ETS1 binding intensity was 7960.

As for GCTGGGGCTGCCGCCATCATGGTGCGGAAGCTTAAG, the ETS1 binding intensity was 383.
